Molecules are shown by their SMILES. Among all 50,000 compounds or so, about 800 (1.6%) showed an effect of 50% or more. The list shows a part of the results.

The experiment concerns the target Bcl-2-like protein 10 (Homo sapiens) (UniProt Q9HD36). The experiment can be described thus: Phenotype converters, Bcl-B/TR3 peptide binding displacement, primary biochemical FP (AID 1240).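 Note: 0% = Bcl-B with tracer peptide and DMSO and 100% = tracer peptide lacking Bcl-B.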 To be noted: GST-Bcl-B / FITC-TR3 peptide fluorescence polarization; stronger effect = higher value; compound at 3.75 mg/L.
UniProt Q9HD36, sequence (Q9HD36 whole entry, looked up): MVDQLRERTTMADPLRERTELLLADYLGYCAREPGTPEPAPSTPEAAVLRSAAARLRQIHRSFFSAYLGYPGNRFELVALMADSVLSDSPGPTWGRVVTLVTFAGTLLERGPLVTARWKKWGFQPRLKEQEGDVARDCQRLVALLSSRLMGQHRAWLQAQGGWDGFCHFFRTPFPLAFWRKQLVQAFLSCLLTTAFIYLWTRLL
In the case of `CC(C)COc1ccc(C(=O)Nc2cccc3ccccc23)cc1`, the displacement was 10.5%.
Consider `CC(=O)Nc1ccc(S(=O)(=O)Nn2cnnc2)cc1`, for which the displacement was -0.9%.
On to `Cc1ccc(N2C(=O)CC(N3CCN(c4ccc(Cl)cc4)CC3)C2=O)c(C)c1` (stereo unspecified), for which the displacement worked out at 10.8%.
For `O=C(CCCSc1nc2sc3c(c2c(=O)[nH]1)CCCC3)NCCCO`, the displacement was -1.9%.
The same measure for `CC(Nc1n[nH]c(=O)[nH]c1=O)C(=O)N/N=C/c1ccc(Cl)cc1` (stereo unspecified): -9.3%; for `Cc1ccc(-c2cc(C(=O)NC(C)C)c3ccccc3n2)c(C)c1`: -4%; for `Cc1ccc2c(C)nc(Nc3nc4ccccc4c(=O)[nH]3)nc2c1`: 11.9%.
The same measure for `CCOC(=O)c1c(C)oc2cc(Br)c(OCC(=O)OCc3ccccc3)cc12`: 10.8%.
Regarding `COC(=O)NC1(C(Cl)Cl)N=C(c2ccccc2)N=C1N` (stereo unspecified), the displacement was 11.9%.
In the case of `CCN1C(=O)/C(=C\c2cccc(C)c2)SC1=S`, the displacement came out at 17.4%.
The same measure for `CC(NC(=O)Nc1ccc(Cl)c(Cl)c1)C1CC2CCC1C2` (stereo unspecified): -5.1%; for `Cc1c(OCc2c(F)cccc2Cl)ccc2c3c(c(=O)oc12)CCC3`: 9.5%.
In the case of `C(=N\N1CCN(Cc2cccc3ccccc23)CC1)/c1ccccn1`, the displacement is -3.8%.
Consider `CCCN(CCC)CN1C(=O)S/C(=C/c2ccc(SC)cc2)C1=O`, for which the displacement is -1.7%.
Take `Cc1ccc(C(=O)O)cc1N1C(=O)c2ccc(C(=O)c3cccc([N+](=O)[O-])c3)cc2C1=O`: the displacement is 14%.
On to `Nc1cc(-c2cccc(Br)c2)nn1Cc1ccc(Cl)cc1`, for which the displacement was 5%.
As for `CCOCCOC(=O)c1ccc(NC(=O)c2ccco2)cc1`, the displacement amounted to 15.9%.
As for `Cc1ccc(OCCn2c(=S)[nH]c3ccccc32)cc1`, the displacement was -1.1%.
In the case of `O=C(Nc1cccnc1)c1ccc(CN(c2ccccc2)S(=O)(=O)c2ccccc2)cc1`, the displacement was -8.7%.
Consider `O=C(COc1ccc(Cl)cc1Cl)NNc1nc(N2CCOCC2)nc(N2CCOCC2)n1`, for which the displacement amounted to 2%.
As for `Oc1ccc(NC(=S)Nc2ccccc2)cc1`, the displacement was 4.1%.
Consider `O=C1C=C/C(=N\S(=O)(=O)c2ccc(Cl)cc2)C=C1Cl`, for which the displacement came to 21.1%.
The same measure for `Cc1cc(C)cc(N2C(=O)NC(=O)/C(=C\c3ccc([N+](=O)[O-])o3)C2=O)c1`: -3.8%; for `CC(Oc1cccc(Cl)c1)C(=O)Nc1cc([N+](=O)[O-])ccc1Cl` (stereo unspecified): -3.1%.
Take `CCOC(=O)COc1nc2ccc(Cl)cc2c(-c2ccccc2)c1C(C)=O`: the displacement is 4.7%.
Turning to `O=S(=O)(NC1CCCCCCC1)c1ccc(F)cc1`, the displacement is -3.4%.
Regarding `CCOc1cccc(C2NC(=O)NC(C)=C2C(=O)OCc2ccc(OC)cc2)c1` (stereo unspecified), the displacement came out at 12.3%.
Turning to `COc1ccc(C(=O)NC23CC4CC(CC(C4)C2)C3)cc1OC`, the displacement is 5.2%.
`COc1ccc(/C=C(/C#N)c2nc(-c3ccc(Br)cc3)cs2)cc1OC`: the displacement came out at 101%.
`COc1ccc(C(NC(=O)C(c2ccccc2)c2ccccc2)NC(=O)C(c2ccccc2)c2ccccc2)cc1OC`: the displacement was 9.7%.
As to `CCOc1cc(C2C(C(=O)OC)=C(C)N(C)C(C)=C2C(=O)OC)ccc1OC(C)=O`, the displacement turned out to be 10.7%.
Consider `Brc1ccc2ncnc(Nc3ccc4c(c3)OCCO4)c2c1`, for which the displacement amounted to 3.7%.
`CNc1ccc([N+](=O)[O-])cc1N/C=C1\CCc2ccccc2C1=O`: the displacement stood at 126%.
The same measure for `COCCN1C(=O)C(=O)/C(=C(/O)c2ccccc2)C1c1ccc2c(c1)OCO2` (stereo unspecified): 0.6%; for `O=C1NC(=O)C2C1C1(c3ccccc3)C(=O)C2(c2ccccc2)C(c2ccccc2)=C1c1ccccc1` (stereo unspecified): 0.7%.
Consider `NC(=O)CN(c1cccc([N+](=O)[O-])c1)S(=O)(=O)c1ccccc1`, for which the displacement was -2.3%.
For `Cc1c(Cc2ccccc2)c(NCCN(C)C)n2c(nc3ccccc32)c1C#N`, the displacement is -0.3%.
Consider `CC1=CC(C)(C)Nc2ccc(OC(=O)C3CCCO3)cc21` (stereo unspecified), for which the displacement is 16.2%.
The same measure for `CC(=O)c1ccc(Oc2ccc(C(C)=O)cc2)cc1`: -0.2%.
The same measure for `COc1cc([N+](=O)[O-])ccc1NC(=O)/C=C\c1ccc(Cl)cc1`: -1.8%; for `COc1ccccc1-n1c(CN2C(=O)c3ccccc3C2=O)nc2ccccc2c1=O`: 1.9%; for `COc1ccc(OCCNc2cc(N3CCN(CCO)CC3)ccc2[N+](=O)[O-])cc1`: 3%.
With `COc1ccc(/C=C/C(=O)OCc2ccc([N+](=O)[O-])cc2)cc1S(=O)(=O)N1CCCCC1`, the displacement was -10%.
Turning to `Cc1ccc(S(=O)(=O)N(Cc2ccccc2)Cc2ccccc2)cc1`, the displacement came out at 15.9%.
Consider `Cc1c(Br)c([N+](=O)[O-])nn1CC(=O)NCc1cccs1`, for which the displacement turned out to be 12.2%.
Regarding `Cc1c(-c2ccc(F)cc2)[n+](=O)c2c(n1[O-])CCC2`, the displacement is -7.2%.
The same measure for `CC(=O)N1Cc2ccccc2C(C)CC12CCCC2` (stereo unspecified): -0.9%; for `Fc1ccccc1NCn1cnc2ccccc21`: 1.6%; for `O=C(N/N=C/c1cccc(Br)c1)C(Oc1ccccc1)Oc1ccccc1`: -0.7%.
With `COc1cc(/C=C2/C(=O)NC(=O)N(c3ccc(Cl)cc3)C2=O)cc([N+](=O)[O-])c1O`, the displacement is -8.8%.
Regarding `CN1CCN(CC(=O)n2c3c(c4ccccc42)CCCC3)CC1`, the displacement is 4.6%.
With `O=C(NNC(=O)C(c1ccccc1)c1ccccc1)c1ccccc1Cl`, the displacement was -10.1%.
Regarding `O=C(Nc1cc([N+](=O)[O-])ccc1C(=O)N1CCC(Cc2ccccc2)CC1)c1cccs1`, the displacement is -7.8%.
Regarding `O=C(Nc1ccc(I)cc1Cl)c1ccccc1[N+](=O)[O-]`, the displacement is -2%.
For the compound `O=C(c1ccc(I)cc1)N1CCN(c2ccccn2)CC1`, the displacement turned out to be 7.5%.
The same measure for `C/C(=N\NC(=O)c1cc(-c2ccccc2)n[nH]1)c1ccccc1`: -11.4%; for `C=CCN(c1ccccc1C(=O)O)S(=O)(=O)/C=C/c1ccccc1`: -7%; for `COc1ccc2c(c1)CC/C(=C\c1cccc(F)c1)C2=O`: 1.8%.
For `Brc1ccccc1OCCCCCCN1CCCCC1`, the displacement came out at 22.7%.
As for `O=C(Nc1cccc(O)c1)c1ccc(NC(=O)C(c2ccccc2)c2ccccc2)cc1`, the displacement is -10.8%.
For `Cc1ccc(C(=O)N2CCN(c3c(Cl)cccc3[N+](=O)[O-])CC2)cc1`, the displacement worked out at 9.1%.
As to `Nc1nonc1-c1ncc(-c2ccc(Br)cc2)nn1`, the displacement amounted to 30.1%.
The same measure for `Cc1ccc(/C(N)=N/OC(=O)c2ccccc2I)cc1`: 0%; for `COc1ccc(N2CCN(C(=O)c3cc(F)c(F)cc3Cl)CC2)c([N+](=O)[O-])c1`: -3.1%; for `CCOc1cc(/C=N/n2nnnc2N)ccc1O`: 5%.
The same measure for `COc1cc(/C=N/N=C2\NC(=O)C(CC(=O)O)S2)cc(OC)c1OC` (stereo unspecified): -10.3%.
The same measure for `O=C(Nc1ccc(S(=O)(=O)Nc2ncccn2)cc1)c1cncc(Br)c1`: 38.4%.
For the compound `CC(C)Oc1ccccc1NC(=O)CSCC(=O)Nc1ccccc1`, the displacement amounted to 15.6%.
With `COc1ccc(S(=O)(=O)N2CCN(C(=O)CC(C)C)CC2)cc1`, the displacement turned out to be 13.2%.
On to `CCc1ccc(C(=O)N2CCN(c3ccc([N+](=O)[O-])cc3)CC2)cc1`, for which the displacement was -5.5%.
Consider `C/C(=N\NC(=O)COc1ccccc1[N+](=O)[O-])c1ccc(Cl)cc1`, for which the displacement is 4.4%.
Take `CC12C=CC(O1)C1C(=O)N(c3ccc(Cl)cc3)C(=O)C12` (stereo unspecified): the displacement came out at 9.6%.
Regarding `O=C(c1cc(F)c(F)cc1Br)N1CCOCC1`, the displacement was -4.8%.
With `CC(=O)c1ccc(NC(=O)c2cc(Cl)ccc2Cl)cc1`, the displacement was found to be 4.5%.
In the case of `COc1ccc(CC(=O)N/N=C(\C)CC(=O)Nc2ccccc2C)cc1OC`, the displacement was -21.3%.
For `COC(=O)c1cc(Cl)c(C(=O)OC)c2c(C(=O)OC)cc(Cl)c(C(=O)OC)c12`, the displacement stood at 4.2%.
On to `O=C1CS/C(=N/N=C/c2ccccc2OCc2ccc(Cl)cc2Cl)N1`, for which the displacement is 22.1%.
As to `O=C(/C=C/c1ccccc1[N+](=O)[O-])c1ccc(Cl)cc1`, the displacement is -7.8%.
On to `CC(=O)C1=C(Nc2ccc(Br)cc2)CC(C)(O)C(C(C)=O)C1c1ccc(C)cc1` (stereo unspecified), for which the displacement is -4.9%.
As to `COCCOC(=O)c1c(C)oc2ccc(OC(=O)c3ccccc3OC)cc12`, the displacement is 15.9%.
Regarding `C#Cc1cccc(NC(=O)c2cccc(OC)c2)c1`, the displacement is -17.4%.
For the compound `CCOC(=O)c1c(C)[nH]c(/C=C2\C(=O)C=Cc3ccccc32)c1O`, the displacement stood at 6.4%.
For `CC(C)CC(C(=O)O)n1c(O)c(C2=c3ccccc3=NC2=O)sc1=S` (stereo unspecified), the displacement was found to be 2.1%.
Consider `O=C(Cc1ccc(Cl)cc1)NC(c1ccccc1)c1ccccc1`, for which the displacement is -4.3%.
Regarding `Cc1cc(NS(=O)(=O)c2ccc(NC(=O)C(C)Oc3cccc(Cl)c3)cc2)nc(C)n1` (stereo unspecified), the displacement is 14.1%.
The same measure for `CCOc1ccc(S(=O)(=O)N(CC(=O)Nc2ccc(OC)c(OC)c2)c2ccc(C)cc2)cc1`: -2.3%; for `O=C1c2ccccc2C(=O)N1c1ncc(Cc2cc(Cl)ccc2Cl)s1`: 5.3%; for `CC1(C)Cc2nc3nc(NN)n(-c4ccccc4)c(=O)c3cc2CO1`: 3.8%.
Take `CC(=O)Oc1cccc(N2C(=O)c3ccc(C(=O)c4ccc5c(c4)C(=O)N(c4cccc(OC(C)=O)c4)C5=O)cc3C2=O)c1`: the displacement was determined as 1.8%.
Turning to `CN(C)c1ccc(/C=C(\C#N)c2nc(-c3ccc4c(c3)OCO4)cs2)cc1`, the displacement is -3%.
For `Cc1ccc(Nc2ccc([N+](=O)[O-])c3nonc23)cc1`, the displacement is -2.1%.
Turning to `COC(=O)c1ccccc1NC(=O)C1CC(=O)N(c2ccc(C)cc2)C1` (stereo unspecified), the displacement amounted to 1.9%.
The same measure for `COc1ccc(/C=C2\C(=O)N(C)C(=S)N(c3ccc(C)cc3)C2=O)cc1OC`: 12.3%; for `O=C(c1ccc(F)c(F)c1)N1CCN(c2cc(N3CCCC3)c(F)cc2[N+](=O)[O-])CC1`: -2.6%.
The same measure for `CNc1c(Cl)c(Cl)c(Cl)c2c1C(=O)c1ccccc1C2=O`: 11.2%; for `Cc1ccc(NC(=O)C(=O)NCc2ccco2)c(C)c1`: 7.5%.
Regarding `CCN(CC)c1ccc(/C=N/N2C(=O)c3ccccc3C2=O)cc1`, the displacement is -1.2%.
`NNc1nnc2c(n1)[nH]c1ccc(Br)cc12`: the displacement was -2.2%.
For the compound `CCc1ccc(N2CC(C(=O)Nc3ccc(Cl)c(Cl)c3)CC2=O)cc1` (stereo unspecified), the displacement was found to be 8.5%.
As for `Cc1occc1C(=O)O/N=C(\N)c1cccnc1`, the displacement was found to be 12.7%.
The same measure for `C#CCOc1c(Br)cc(C2C(C(=O)OC)=C(C)NC3=C2C(=O)c2ccccc23)cc1OC` (stereo unspecified): 12.1%; for `COc1cc(/C=C/c2cc(C(F)(F)F)[nH]c(=O)n2)ccc1OCc1ccc(Cl)cc1Cl`: 41.6%.
The same measure for `C/C(=N\Nc1cc(-c2ccccc2)nc(C)n1)c1ccccc1`: 3.3%; for `COc1ccccc1NC(=O)c1ccccc1-c1ccccc1C(=O)O`: 3.1%.
On to `Cc1ccccc1NC(=O)C(=O)NCc1ccc2c(c1)OCO2`, for which the displacement came out at 13.3%.
In the case of `CCSc1nc(N)c2c3c(sc2n1)COC(C)(CC)C3` (stereo unspecified), the displacement was 0%.
